The full ranking holds about 33,000 sequences; the median of “E-score (-0.5 to 0.5)” is about -0.056, and the highest 2% start at about 0.38. This is one part of the list.
The sequences below were run against Stb4 (UniProt P50104) (assay: PBM E-score (8-mer binding enrichment) (E-score (-0.5 to 0.5)); higher = stronger / more preferred TF binding; most listed sequences are background and not binding sites). Conditions: protein concentration: 200 nM; construct: GST-DNA-binding domain.
In short: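 E-scores (a modified Wilcoxon-Mann-Whitney statistic) were assigned by the Universal PBM Analysis Suite to every ungapped eight-base word pooled with its reverse complement. The input came from universal all-10-mer Agilent arrays made double-stranded by primer extension and probed with GST-tagged yeast transcription factors at about 100-200 nM. Fluorescent anti-GST detected bound protein, and masliner normalised the scans.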

| Sequence | PBM E-score |
| --- | --- |
| TATTGACA | -0.0808 |
| ACAGCCCT | -0.116 |
| GTTATCTA | -0.0202 |
| CGACATCG | 0.0858 |
| CTCTCACC | -0.0864 |
| GACCAGCA | -0.245 |
| AACACCGT | -0.0272 |
| GCCCCCCC | -0.167 |
| AATTAGCT | -0.0435 |
| AGCGCGAA | 0.0663 |
| CTGCGGAA | 0.197 |
| GATATTCA | 0.101 |
| CAAGCATA | -0.0827 |
| AGGGGTAT | -0.116 |
| CTATAATA | -0.0792 |
| GTCGCGGA | 0.194 |
| AACATAGC | -0.0662 |
| GCATAGGC | -0.247 |
| CACATCCA | -0.0807 |
| ACGCCGTA | -0.208 |
| CCAAATAC | -0.121 |
| ACAACACT | -0.184 |
| CTCGGAAA | 0.479 |
| CTTGCAGA | -0.113 |
| GGATGTTA | 0.265 |

| Sequence | PBM E-score |
| --- | --- |
| CCCTCTTA | -0.264 |
| CAACGTAC | -0.254 |
| AAGGCTTG | -0.181 |
| CCAGCGGA | -0.0293 |
| ACTAAATA | -0.00118 |
| CGATAGCG | 0.0721 |
| ACGCATGC | 0.0904 |
| GAAAGCGC | -0.0508 |
| GAACCTTC | -0.0495 |
| GTAAAAGA | -0.245 |
| ACCAAAGT | -0.199 |
| TTCCTCAA | -0.14 |
| ACAGCTGG | -0.284 |
| AACCAGTG | -0.201 |
| CGAAGCAG | 0.0839 |
| CGTGTACA | -0.0735 |
| CACTTTAA | -0.0043 |
| CTAATTTA | -0.0483 |
| CCTAGACG | -0.065 |
| CACTGCAG | -0.081 |
| AGATTCGC | -0.19 |
| ATACCACG | 0.0304 |
| ATGGCGTG | -0.149 |
| ACCAGCTC | -0.0869 |
| CGTCAACG | -0.0452 |

| Sequence | PBM E-score |
| --- | --- |
| ACATCGCG | -0.139 |
| TAAGTTAA | -0.0707 |
| CCTGCCGC | 0.0376 |
| TCGGTAAA | 0.433 |
| GATTGTGC | 0.0549 |
| ATCCTTTG | -0.0972 |
| CCGCCGCG | 0.255 |
| ACCTTTTA | -0.206 |
| GTATGCAC | -0.0733 |
| CACTTTTC | -0.0102 |
| GATCGGCC | 0.218 |
| CCTGGATA | -0.0829 |
| ATGCCCGG | 0.274 |
| AAAATCCT | 0.0795 |
| GAGTACTC | -0.00922 |
| GCAGTGTA | -0.1 |
| TGGTGGAA | -0.133 |
| AACACTCA | -0.0187 |
| AGGAGCCA | -0.29 |
| ACAGGCCG | 0.189 |
| ACTGACGA | -0.153 |
| AGATACTC | -0.0748 |
| AGTCTCCG | 0.336 |
| GAAAAATA | 0.18 |
| AAGGACAT | -0.101 |

| Sequence | PBM E-score |
| --- | --- |
| GCTGCCAC | -0.00973 |
| CTCGTGGA | -0.158 |
| GAGCGTGA | -0.0314 |
| ATAAGGCA | 0.0166 |
| GGGAGCTA | -0.00543 |
| CGTACGCC | 0.0198 |
| ATGAGTTG | 0.0781 |
| AAAAATTA | 0.0181 |
| CTGTCACA | -0.293 |
| GAAAGCCA | -0.109 |
| ATGCGTGC | -0.105 |
| GAATGTCC | -0.0179 |
| ATGAAGAC | -0.178 |
| TAGCTGGA | -0.33 |
| AACTTTAA | 0.0938 |
| AAGGATCA | -0.146 |
| ACTAGGCG | 0.0261 |
| CGAATCGA | 0.179 |
| TGCAAACA | -0.366 |
| CGTTGCTC | 0.104 |
| ATCCCGCG | 0.307 |
| GTTGTAGA | -0.0823 |
| CGTGTCTC | 0.0641 |
| AAGCAGAT | -0.0661 |
| ACGATACC | 0.109 |

| Sequence | PBM E-score |
| --- | --- |
| CGTACACA | -0.0766 |
| TGCGATAA | -0.0908 |
| ATGTCACC | 0.0791 |
| ATGTAGAA | -0.0981 |
| CAATCAAG | -0.245 |
| CACAGTTA | -0.193 |
| AAATCGCC | 0.0505 |
| CGAAAAGA | 0.146 |
| AACGTGGC | -0.0642 |
| ACTCGGGA | 0.44 |
| CGATCCGC | 0.325 |
| AGTATTAC | 0.103 |
| CACTAACG | -0.267 |
| CCTTCCTC | -0.27 |
| CGGTAAAA | 0.346 |
| GACCTGCC | 0.0159 |
| GAATATTC | 0.274 |
| GCGTGACC | -0.11 |
| AAGCCCAA | -0.125 |
| CACAGAGA | -0.118 |
| CAACCGGA | 0.281 |
| CAATCTAG | 0.0788 |
| TGAGCTCA | -0.157 |
| AATGTCCG | 0.252 |
| AGACTGGA | -0.123 |

| Sequence | PBM E-score |
| --- | --- |
| CACATGTG | -0.275 |
| CATCAACA | -0.0215 |
| CCCTCAGG | -0.0461 |
| ATGATGTC | -0.0462 |
| ACTGAAAT | -0.18 |
| AGTTACTG | 0.0303 |
| AGAAATGG | -0.0954 |
| CCTGGCTA | -0.309 |
| CAGGAGTC | -0.0625 |
| CACAAGGC | -0.0505 |
| ACATTGGC | -0.103 |
| ACCGTCGT | -0.082 |
| CATCTTCC | 0.243 |
| CACCGGAC | 0.215 |
| GGGCGAAC | 0.05 |
| CGGGCGAA | 0.158 |
| GTCGGTTA | 0.343 |
| AAGCGAAC | -0.102 |
| ATACGACC | -0.119 |
| CGCGCTCA | -0.26 |
| CTATTTCA | 0.0134 |
| CTGGGCTA | -0.0338 |
| AAATCATA | 0.0586 |
| CGCCAGGA | -0.169 |
| AGCGACGG | 0.1 |

| Sequence | PBM E-score |
| --- | --- |
| ACGAGCAG | -0.195 |
| ATCCAACG | -0.1 |
| AATGCATT | -0.0711 |
| AAGGAAAC | 0.0426 |
| ACCCAGTG | -0.234 |
| GACGGGAC | 0.213 |
| GAATCCAA | 0.0533 |
| ACACACTA | -0.0821 |
| CGGAGAGA | 0.232 |
| CAGGATGG | -0.251 |
| TAGCGATA | -0.157 |
| AGGCGAAA | -0.11 |
| AACCATGA | 0.0882 |
| CAGGTTAC | -0.0726 |
| CCGGGAAA | 0.33 |
| AAAGCATG | -0.0421 |
| ATTATGCA | 0.0972 |
| GGGAGGGA | 0.155 |
| GATTTGGA | 0.0244 |
| CATAAATC | 0.025 |
| GAGTAACA | 0.117 |
| ATGTCCGA | 0.319 |

— the supplement of paper PMC3334620
